According to publication PMC4336329 (PLoS ONE, 2015):
Out of some 310,000 compounds screened, about 2,200 (0.71%) showed an effect of 50% or more. Effects have a minus sign here. The list shows a part of the results.

target: human ether-à-go-go-related gene (hERG) potassium channel (human, UniProt Q12809); assay: primary screen, population patch clamp on CHO cells stably expressing hERG
Sequence (Q12809 whole entry, looked up): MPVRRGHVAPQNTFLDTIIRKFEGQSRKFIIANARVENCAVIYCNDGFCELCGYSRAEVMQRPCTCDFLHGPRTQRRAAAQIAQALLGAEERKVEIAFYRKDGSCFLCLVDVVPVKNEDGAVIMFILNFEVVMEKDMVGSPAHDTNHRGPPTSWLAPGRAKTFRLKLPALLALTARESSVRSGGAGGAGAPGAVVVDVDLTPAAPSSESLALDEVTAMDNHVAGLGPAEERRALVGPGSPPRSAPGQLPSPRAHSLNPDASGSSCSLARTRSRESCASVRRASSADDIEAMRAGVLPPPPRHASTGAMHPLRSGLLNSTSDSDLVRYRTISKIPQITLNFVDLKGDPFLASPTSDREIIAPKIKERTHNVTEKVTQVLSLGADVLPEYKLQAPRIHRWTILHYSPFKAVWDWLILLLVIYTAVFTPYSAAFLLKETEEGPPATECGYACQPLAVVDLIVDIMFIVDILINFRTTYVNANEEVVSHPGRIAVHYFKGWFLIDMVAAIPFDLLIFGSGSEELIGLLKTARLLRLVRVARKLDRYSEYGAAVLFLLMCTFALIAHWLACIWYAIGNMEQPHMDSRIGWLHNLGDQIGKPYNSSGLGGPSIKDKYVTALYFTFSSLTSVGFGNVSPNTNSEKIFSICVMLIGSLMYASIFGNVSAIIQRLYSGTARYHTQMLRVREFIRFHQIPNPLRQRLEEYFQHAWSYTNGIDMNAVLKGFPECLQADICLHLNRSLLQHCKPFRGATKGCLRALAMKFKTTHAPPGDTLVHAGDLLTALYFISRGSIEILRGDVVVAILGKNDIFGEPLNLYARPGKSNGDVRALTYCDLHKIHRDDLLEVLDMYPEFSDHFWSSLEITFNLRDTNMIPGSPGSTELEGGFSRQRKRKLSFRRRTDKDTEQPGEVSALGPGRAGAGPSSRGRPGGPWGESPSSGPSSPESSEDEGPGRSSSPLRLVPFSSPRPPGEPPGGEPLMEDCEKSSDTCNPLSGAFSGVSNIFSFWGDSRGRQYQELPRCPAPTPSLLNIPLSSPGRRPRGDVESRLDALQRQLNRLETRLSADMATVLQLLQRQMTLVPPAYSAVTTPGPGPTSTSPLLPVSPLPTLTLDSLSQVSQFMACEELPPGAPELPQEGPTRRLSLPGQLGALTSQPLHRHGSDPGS

SMILES | hERG current change (%, negative = inhibition) at 1uM [%]
COc1ccc(-c2cc(C(F)(F)F)nc(SCCC(=O)N3CCOCC3)n2)cc1 | 1.29
CC(C)S(=O)(=O)CC(=O)c1ccc(Cl)cc1 | 16.5
CCc1nnc(NC=C2C(=O)OC(C)(C)OC2=O)s1 | 3.72
Cc1oc2c(O)c(O)ccc2c(=O)c1-c1cnn(-c2ccccc2)c1 | -10.1
CCN1CCN(CC(O)COCc2ccccc2)CC1.Cl (centres unmarked) | 23.5
Nc1ccc(C(=O)NCCCSc2ccccc2)cc1[N+](=O)[O-] | 12.5
C/C(CCc1ccc2c(c1)OCO2)=N\N=C1\NC(=O)CC(C(=O)Nc2ccccc2)S1 (centres unmarked) | -1.54
COc1cccc(C(=O)N2CCCC(Nc3ccc(C)c(C)c3)C2)c1 (centres unmarked) | 8.93
Clc1ccc(-c2nnc(SCc3cn4ccsc4n3)n2CC2CCCO2)cc1 (centres unmarked) | -2.27
CC(C)Sc1nc2ccsc2c(=O)[nH]1 | 8.75
CCCCC[C@H]1CN(CCc2ccccc2)C(=O)[C@@H]1CC(=O)NCc1ccc(OC)cc1 | -28.1
O=C(CCc1nc(-c2ccc(Cl)cc2)no1)NCc1ccccc1CN1CCOCC1 | -4.84
Cc1ccc(CNC(=O)CCCc2ccccc2)cc1 | -1.51
COc1cc(Br)c(CCNC(=O)Cc2ccccc2)cc1OC | 1.68
C=CCn1c(SCC(=O)NCc2ccccc2)nnc1-c1cc(Br)ccc1O | 1.72
CC(C)(C)NC(=O)c1ccccc1NC(=O)c1ccc2c(c1)OCO2 | 9.29
Cn1c(=O)c2c(ncn2CC(=O)N2CCN(S(=O)(=O)c3ccccc3)CC2)n(C)c1=O | 13.7
NC(=O)CC(NC(=O)c1cccc(Br)c1)c1ccc(N2CCN(c3ccc(F)cc3)CC2)c([N+](=O)[O-])c1 (centres unmarked) | 2.68
CC(=O)c1cc2c(cc1NC(=O)CSc1nc3ccc(C)cc3[nH]1)OCO2 | -3.23
CCOC(=O)/C(C#N)=C/c1cc(C)n(-c2ccc(Br)cc2)c1C | 9.31
COC(=O)c1cccc(NC(=O)c2cccnc2)c1.Cl | -6.64
O=C(Cc1n[nH]c(=O)c2ccccc12)NCc1ccccc1 | -9.53
CCn1c(SCC(N)=O)nc2sc3c(c2c1=O)CCN(C)C3 | 14.1

SMILES | hERG current change (%, negative = inhibition) at 1uM [%]
CC(SC1=NCCN1S(C)(=O)=O)c1ccccc1 (centres unmarked) | 8.7
Cc1cc(=O)[nH]c(SCC(=O)Nc2nc(-c3ccccc3)c(-c3ccccc3)o2)n1 | 2.67
CC1CC(=O)c2c(cc3c(-c4c(O)cc(O)c5c(O)c6c(cc45)OC(C)CC6=O)c(O)cc(O)c3c2O)O1 (centres unmarked) | 1.55
O=C(NCCN1CCOCC1)Nc1ccccc1 | 0.366
COc1ccc(N(CC(=O)N2CCN(Cc3ccccc3)CC2)S(C)(=O)=O)c(OC)c1 | 12.5
CNC(=O)C(NC(=O)c1ccccc1)=C(C)C | -1.26
COc1cccc(-c2cc(C(=O)NC3CCCC3)no2)c1 | 4.68
COc1ccc(-n2c(=O)cc(N3CCN(c4ccccc4)CC3)[nH]c2=O)cc1 | 11
O=C(COc1ccc2ccccc2c1)NCCc1ccc2c(c1)OCCO2 | 2.52
COc1cccc(NC(=O)COC(=O)c2c(C)noc2C)c1 | 6.06
O=C(NCc1cccc2[nH]ccc12)C1CCC(=O)N(CCc2ccccc2)C1 (centres unmarked) | 16.1
O=C(CN1C(=O)c2ccccc2C1=O)N1CCCCC1 | -0.852
COc1ccc(-c2csc(N(CCCN(C)C)C(=O)c3ccccc3Cl)n2)cc1.Cl | -12.5
COc1ccc(NC(=O)CCN2CCN(c3ccc(F)cc3)CC2)cc1 | 3.95
Cc1c(C(=O)N2CCN(c3ccccc3)CC2)sc2ncnc(N3CCN(c4ccccn4)CC3)c12 | 1.37
COc1ccc(-c2nc(C#N)c(N3CCC(C(N)=O)CC3)o2)cc1 | 0.104
Cc1ccccc1C(=O)NC(NC(=S)Nc1ccc(S(N)(=O)=O)cc1)C(Cl)(Cl)Cl (centres unmarked) | 15.9
C=C(C)C1CC=C(C)/C(=N/NC(=O)CCCNc2cccc(C)c2)C1 (centres unmarked) | 13.2
O=C(NCc1ccccc1)Nc1cccn(Cc2ccccc2Cl)c1=O | 11.3
O=C(Nc1cccc(C(F)(F)F)c1)C1CC(=O)N(CCc2ccccc2)C1 (centres unmarked) | 7.45
COCCCNC(=O)c1ccc(C2SCC(=O)N2Cc2ccco2)cc1 (centres unmarked) | 9.55
Cc1cc(Br)cc(C)c1OCC(=O)NNC(=O)c1cccs1 | 5.21
Cn1c(=S)[nH]c2[nH]c(=O)cnc2c1=O | 4.61

SMILES | hERG current change (%, negative = inhibition) at 1uM [%]
Cc1cc(S(=O)(=O)N2CCCCC2)ccc1OCC(=O)N1CCOCC1 | -4.6
CN(CC(=O)Nc1cccc2ccccc12)C(=O)c1cccc(S(=O)(=O)N(C)C)c1 | 6.51
CN(c1ccc(C(=O)NCCSCc2c(F)cccc2Cl)cc1)S(C)(=O)=O | 9.84
O=S(=O)(Cc1ccccc1)N=Nc1c(O)[nH]c2ccc(Br)cc12 | 12.7
COc1ccc2[nH]c(C(=O)N/N=C/c3cc(OC)c(OC)c(OC)c3)cc2c1 | 9.96
O=S(=O)(NCc1ccncc1)c1ccccc1 | 7.96
CCOP(=O)(OCC)C(C)(C)NC(=O)C(Cl)(Cl)Cl | 10.2
Cc1cc(-c2ccc(S(=O)(=O)NCc3ccc(F)cc3)cc2)on1 | 13
Cc1cc(C)c2nc(-c3ccccn3)cc(C(=O)NCCc3ccc(S(N)(=O)=O)cc3)c2c1 | 14.6
Cc1cccc(OCC(=O)Nc2cccc(C(=O)NCC(C)C)c2)c1 | 4.84
Cc1c(CN2CCC(Oc3ccc(C(=O)N4CCCCC4)cc3)CC2)cnn1C | 7.8
CCCNC(=O)Cn1cnc2sc(C(=O)Nc3ccc4c(c3)OCO4)c(C)c2c1=O | 7.35
CC1CCCC(C2(O)C(=O)Nc3ccccc32)C1=O (centres unmarked) | 16.2
Cc1cc(NC(=O)CSc2nc(CCC3CCCC3)nc3ccccc23)no1 | -4.97
O=C1CCC(C(=O)N(CCO)Cc2ccccc2)CN1CC1CCCCC1 (centres unmarked) | 14.5
O=C(OCc1csc(-c2ccccc2)n1)c1cccs1 | 14.4
CCOc1ccc(NC(=S)Nc2ccc(OC(F)(F)F)cc2)cc1 | 7.91
O=C(OCCN=C1NS(=O)(=O)c2ccccc21)c1cccnc1 | 12.5
COc1cc(C2Nc3ccccc3NC3=C2C(=O)CC(C)(C)C3)cc(OC)c1OC (centres unmarked) | 7.21
CCOC(=O)N1CCN(S(=O)(=O)c2ccc(C)c(C)c2)CC1 | 11.6
O=C1NC(=O)C(=Cc2cn(CCOc3ccc4c(c3)OCO4)c3ccccc23)C(=O)N1 | 14.7
N#Cc1nc(-c2ccc(F)cc2)oc1NCc1ccco1 | 7.32
CC(OC(=O)c1cccc(-n2cnnn2)c1)c1nc2ccccc2c(=O)[nH]1 (centres unmarked) | 7.2

SMILES | hERG current change (%, negative = inhibition) at 1uM [%]
Cc1ccnc(SCc2cc(=O)c(OC(=O)c3ccc(Br)o3)co2)n1 | 5.12
CC1CCc2sc3c(c2C1)c(=O)n(CC(=O)O)c(=O)n3Cc1ccc(Cl)cc1 (centres unmarked) | 10
O=C(NCCCCNC(=O)c1ccc(F)cc1)c1ccc(F)cc1 | 14.3
Cc1ccc(S(=O)(=O)c2cc3c(=O)n4cccc(C)c4nc3n(C3CCCCC3)c2=N)cc1 | 8.4
CCn1c(=O)c2c3c(sc2n(C)c1=O)CCC3 | 3.87
CCc1nnc(NC(=O)CSc2ncnc3c2cnn3-c2ccc(OC)cc2)s1 | 10
Cc1ccc(SCCC(=O)Nc2ccccc2C(=O)NC(C)C)cc1 | -0.81
CSCC(NS(=O)(=O)c1ccc(C)cc1)C(=O)O (centres unmarked) | 7.57
CCSc1nnc2c(Cl)cc(Cl)cn12 | 6.54
CCCCn1c(N)c(N(Cc2ccccc2OC)C(=O)CCSC)c(=O)[nH]c1=O | 5.97
COc1cc2c(cc1OC)CN(C(=O)c1ccncc1)CC2 | 5.7
CCC(C)OC1OC(CO)C(O)C(O)C1NC(C)=O (centres unmarked) | 12.5
COc1c(C)cc(C(=O)C2CCCN(Cc3ccccn3)C2)cc1C (centres unmarked) | 13.6
O=S(=O)(c1ccc(NC(=S)NN=C(C2CC2)C2CC2)cc1)N1CCOCC1 | 9.57
O=C(O)c1ccc(-c2sc(Nc3ccccc3)n[n+]2-c2ccc(F)cc2)cc1.[Cl-] | 7.38
COc1cc(CNc2ccc3[nH]c(=O)[nH]c3c2)ccc1OCc1c(F)cccc1Cl | 9.91
O=C(Nc1ccc(N2CCCC2)cc1)C(Cl)c1ccccc1 (centres unmarked) | -4.91
CN=C1S/C(=C\c2ccc(N3CCOCC3)cc2C)C(=O)N1C | 16.2
CCn1c(O)c(N=NC(=O)CNC(=O)/C=C/c2ccco2)c2ccccc21 | 5.63
Cc1cc(C)c(C#N)c(Nc2ccccc2)n1 | 5.59
